# Laboratory results reported in a collection of fitness landscapes (doi:10.1016/j.celrep.2020.107928).
# Over roughly 81,000 sequences, “one-hybrid fitness for binding parS DNA” has its median near -0.17; the highest 2% begin near 0.51. The list shows a part of the results.
# B1: Caulobacter ParB omega fusion; a variant is named by its letters at X, in order, B8GW30 (parent)
# chain: MESVVVGEPGMSEGRRGLGRGLSALLGEVDAAPAQAPGEQLGGSREAPIEILQRNPDQPRRTFREEDLEDLSNSIREKGVLQPILVRPSPDTAGEYQIVAGERAWRAAQRAGLKTVPIMVRELDDLAVLEIGIIENVQRADLNVLEEALSYKVLMEKFERTQENIAQTIGKSXSHVANXMRLLXLPDEVQSYLVSGELTAXHARAIAAAADPVALAKQIIEGGLSVRETEALARKAPNLSAGKSKGGRPPRVKDTDTQALESDLSSVLGLDVSIDHRGSTGTLTITYATLEQLDDLCNRLTRGI
# Variants of: B1
# Experiment: one-hybrid fitness for binding parS DNA (scaled: cognate 1, non-cognate 0); higher = stronger binding
# Settings: with parS DNA site
# Outline: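 In E. coli USO, a HIS3 reporter with its site placed 19 bp from the promoter was used to select Caulobacter ParB variants randomised at four specificity codons. Growth lasted 48 hours at 37°C on histidine-free M9 containing 0.1 mM IPTG and 5 mM 3-AT. Fitness was taken as the log change in variant-to-wild-type read ratio from Illumina sequencing of pre- and post-selection plasmids, rescaled between the non-cognate and cognate sites.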
row,Variant,one-hybrid fitness for binding parS DNA
1,RWTM,0.22
2,PPIL,≤ 0.2
3,RKWC,0.887
4,EMYS,≤ 0.2
5,RMMS,1.03
6,ADAC,≤ 0.2
7,GPCC,≤ 0.2
8,SNTK,≤ 0.2
9,DLWG,≤ 0.2
10,YKTT,≤ 0.2
11,RSWT,0.756
12,EDGL,≤ 0.2
13,VEDR,≤ 0.2
14,SFPL,≤ 0.2
15,QTNV,≤ 0.2
16,QKFG,≤ 0.2
17,HNFW,≤ 0.2
18,RGRM,0.254
19,LQSI,≤ 0.2
20,KQEL,≤ 0.2
21,RGMK,≤ 0.2
22,VDER,≤ 0.2
23,GTEF,≤ 0.2
24,VCIC,≤ 0.2
25,DWVS,≤ 0.2
26,AMAS,≤ 0.2

row,Variant,one-hybrid fitness for binding parS DNA
1,TSYG,≤ 0.2
2,NTQV,≤ 0.2
3,SCPV,≤ 0.2
4,MVHR,≤ 0.2
5,HLEP,≤ 0.2
6,TLSN,≤ 0.2
7,QQFL,≤ 0.2
8,QTKT,≤ 0.2
9,PSTN,≤ 0.2
10,FRRQ,≤ 0.2
11,PCAV,≤ 0.2
12,HRCD,≤ 0.2
13,EPYC,≤ 0.2
14,QTAM,≤ 0.2
15,EVRL,≤ 0.2
16,GGKC,≤ 0.2
17,QKHQ,≤ 0.2
18,QQYV,≤ 0.2
19,GTCQ,≤ 0.2
20,RTRF,0.627
21,QWKR,≤ 0.2
22,ERPI,≤ 0.2
23,YCQS,≤ 0.2
24,GCYR,≤ 0.2
25,EPQP,≤ 0.2
26,FSRT,≤ 0.2

row,Variant,one-hybrid fitness for binding parS DNA
1,RLLV,≤ 0.2
2,EDAR,≤ 0.2
3,HSTQ,≤ 0.2
4,GLGV,≤ 0.2
5,LIKP,≤ 0.2
6,PHSS,≤ 0.2
7,PARE,≤ 0.2
8,ECYR,≤ 0.2
9,TMFR,≤ 0.2
10,WLAW,≤ 0.2
11,GVNW,≤ 0.2
12,AETG,≤ 0.2
13,IQPH,≤ 0.2
14,KYCL,≤ 0.2
15,WVGN,≤ 0.2
16,HTVD,≤ 0.2
17,TVYS,≤ 0.2
18,RYPK,≤ 0.2
19,TILT,≤ 0.2
20,HWYS,≤ 0.2
21,AFVG,≤ 0.2
22,QWSY,≤ 0.2
23,KWHS,≤ 0.2
24,RTGG,0.997
25,ADKE,≤ 0.2
26,TIIA,≤ 0.2

row,Variant,one-hybrid fitness for binding parS DNA
1,RWNA,0.425
2,IKPF,≤ 0.2
3,AKLR,≤ 0.2
4,CTPF,≤ 0.2
5,GKIS,≤ 0.2
6,RLCF,0.27
7,HCYS,≤ 0.2
8,TVCG,≤ 0.2
9,IIYS,≤ 0.2
10,MFVC,≤ 0.2
11,NLSH,≤ 0.2
12,TRAW,≤ 0.2
13,YLCT,≤ 0.2
14,NWRK,≤ 0.2
15,MFTH,≤ 0.2
16,PTFS,≤ 0.2
17,AFKS,≤ 0.2
18,RAIC,0.782
19,WGSC,≤ 0.2
20,KVLT,≤ 0.2
21,EPNT,≤ 0.2
22,KRHH,≤ 0.2
23,KCKF,≤ 0.2
24,QVGY,≤ 0.2
25,HTTD,≤ 0.2
26,AQRW,≤ 0.2

row,Variant,one-hybrid fitness for binding parS DNA
1,GCVW,≤ 0.2
2,MAHS,≤ 0.2
3,ADCG,≤ 0.2
4,ETIS,≤ 0.2
5,SLAA,≤ 0.2
6,MAPC,≤ 0.2
7,GTQG,≤ 0.2
8,HYFC,≤ 0.2
9,YQYK,≤ 0.2
10,GVIF,≤ 0.2
11,TQQS,≤ 0.2
12,MYCG,≤ 0.2
13,TKLL,≤ 0.2
14,WLPG,≤ 0.2
15,FTTL,≤ 0.2
16,NRNS,≤ 0.2
17,QAWV,≤ 0.2
18,IKKS,≤ 0.2
19,DNYE,≤ 0.2
20,LHGM,≤ 0.2
21,MPMF,≤ 0.2
22,RMCP,≤ 0.2
23,CMWS,≤ 0.2
24,TMLT,≤ 0.2
25,QKQR,≤ 0.2
26,RICR,≤ 0.2

row,Variant,one-hybrid fitness for binding parS DNA
1,EINN,≤ 0.2
2,IKAE,≤ 0.2
3,MKYV,≤ 0.2
4,SVIS,≤ 0.2
5,RTAS,0.968
6,THNA,≤ 0.2
7,QQPM,≤ 0.2
8,KMGV,≤ 0.2
9,DEIR,≤ 0.2
10,GGSE,≤ 0.2
11,VNMS,≤ 0.2
12,TKTN,≤ 0.2
13,VRMY,≤ 0.2
14,PMCM,≤ 0.2
15,WTMK,≤ 0.2
16,LKEE,≤ 0.2
17,SGEY,≤ 0.2
18,RLNP,≤ 0.2
19,TCHY,≤ 0.2
20,RVPV,≤ 0.2
21,DFSV,≤ 0.2
22,LNNW,≤ 0.2
23,CLMG,≤ 0.2
